Experimental data taken from PubChem BioAssay (Tox21).
Where “and” joins values, the source holds several entries; their conditions need not be identical. Equal entries are not always repeated. Inconclusive results, whose numbers are uncertain, are shown with a selection of clear calls. Potencies of inconclusive entries are doubtful fits and often do not repeat. Where a structure was tested more than once in an assay, its records may differ in their call. Calls of active or inactive are those of the source. Calls come from the whole dose curve; as a rule, active = well fitted curve in the direction sought with a large enough effect in the repeat runs; inconclusive = weak or mixed curves; inactive = no such curve, though single readings can be large; an effect the other way counts as inactive or inconclusive.

What was measured:
[1] = A CellTox Green Cytotoxicity Assay to monitor cytotoxicity in HepG2 cells - 40 hour (AID 1224879); conditions: CellTox Green fluorescence; series mostly up to 76.8 µM; note: nearly all actives have a fitted effect of over 40% in size
In short: (§1)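 HepG2 cells were seeded together with the CellTox Green dye at 600 cells/well, left 5 h at 37 C/5% CO2, then given compounds in DMSO. Fluorescence from dye bound to dead-cell DNA was read repeatedly over 40 h of treatment at 37 C.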

[2] = A CellTox Green Cytotoxicity Assay to monitor cytotoxicity in HepG2 cells - 24 hour (AID 1224878); conditions: CellTox Green fluorescence; series mostly up to 76.8 µM; note: nearly all actives have a fitted effect of over 45% in size
In short: as §1

[3] = A CellTox Green Cytotoxicity Assay to monitor cytotoxicity in HEK293 cells - 8 hour (AID 1224884); conditions: CellTox Green fluorescence; series mostly up to 76.8 µM; note: nearly all actives have a fitted effect of over 35% in size
In short: (§2)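 HEK293 cells premixed with CellTox Green dye were seeded at 600 cells/well and left 5 h at 37 C/5% CO2 before pin transfer of 23 nL compound in DMSO. Fluorescence from dye bound to dead-cell DNA was read during 40 h treatment.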

[4] = qHTS RealTime-Glo MT Cell Viability Assay in HEK293 cells - 0 hour (AID 1224880); conditions: RealTime-Glo luminescence; series mostly up to 76.8 µM; note: nearly all actives have a fitted effect of over 45% in size
In short: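 HEK293 cells mixed with RealTime-Glo reagents (NanoLuc plus cell-permeant prosubstrate) at 600 cells/well, preincubated 5 h at 37 C/5% CO2, then given 23 nL compound in DMSO. Nonlytic luminescence from viable cells was read at 0, 8, 16, 24, 32 and 40 h.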

[5] = A CellTox Green Cytotoxicity Assay to monitor cytotoxicity in HepG2 cells - 32 hour (AID 1224883); conditions: CellTox Green fluorescence; series mostly up to 76.8 µM; note: nearly all actives have a fitted effect of over 50% in size
In short: as §1

[6] = A CellTox Green Cytotoxicity Assay to monitor cytotoxicity in HepG2 cells - 0 hour (AID 1224882); conditions: CellTox Green fluorescence; series mostly up to 76.8 µM; note: nearly all actives have a fitted effect of over 35% in size
In short: as §1

[7] = A CellTox Green Cytotoxicity Assay to monitor cytotoxicity in HEK293 cells - 32 hour (AID 1224881); conditions: CellTox Green fluorescence; series mostly up to 76.8 µM; note: nearly all actives have a fitted effect of over 40% in size
In short: as §2
Potency is the fitted concentration of half-maximal effect; tags give direction and shape of the fitted curve.

CCCCCCCCCCCCCCC(Br)C(=O)O (stereo not given)
Potency [1]: active: 17.4 µM

CC(C)(C)OO
Potency [1]: inactive

CCCCCCCCCCCCCCCCn1cc[n+](C)c1
Potency [2]: inconclusive: 50 µM [activator, single point]
Potency [3]: inconclusive: 61.8 µM [activator, single point]

C[C@H]1CC[C@@H]2[C@@H](C)[C@H]3[C@H](C[C@H]4[C@@H]5CC=C6CC(O[C@@H]7O[C@H](CO)[C@H](O)[C@H](O[C@@H]8O[C@H](CO)[C@@H](O)[C@H](O)[C@H]8O)[C@H]7O[C@H]7O[C@@H](C)[C@H](O)[C@@H](O)[C@H]7O)CC[C@]6(C)[C@H]5CC[C@]34C)N2C1 (stereo not given in full)
Potency [2]: active: 11.3 µM
Potency [4]: inconclusive: 28.4 µM [rising, partial curve, poor fit]
Potency [5]: active: 22.6 µM

O=C(O)c1c(Cl)ccc2cc(Cl)cnc12
Potency [2]: inactive

CN(C)[C@@H]1C(=O)C(C(N)=O)=C(O)[C@@]2(O)C(=O)C3=C(O)c4c(O)cccc4[C@@](C)(O)[C@H]3C[C@@H]12
Potency [1]: inactive

CCN(CC)CCOC(=O)C(C)(c1ccccc1)c1ccccc1
Potency [2]: inconclusive: 19 µM [activator, partial curve, poor fit]
Potency [6]: inconclusive: 23.9 µM [activator, partial curve]
Potency [5]: inconclusive: 21.3 µM [activator, partial curve]

Oc1cc(Cl)c(Cl)cc1Cl
Potency [2]: inconclusive: 54.5 µM [activator, single point]
Potency [1]: inconclusive: 54.5 µM [activator, single point] and inconclusive: 61.6 µM [activator, single point]
Potency [7]: inconclusive: 61.2 µM [activator, partial curve, poor fit]
